The campaign covered roughly 310,000 compounds. About 14,000 (4.5%) showed an effect of 50% or more. Effects have a minus sign here. Some of the results follow.
What follows are compounds tested against human ether-à-go-go-related gene (hERG) potassium channel (human, UniProt Q12809) (assay: primary screen, population patch clamp on CHO cells stably expressing hERG).
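Note: peak tail current of the secondary pulse compared with the same well before compound.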

human ether-à-go-go-related gene (hERG) potassium channel, sequence (Q12809 whole entry, looked up): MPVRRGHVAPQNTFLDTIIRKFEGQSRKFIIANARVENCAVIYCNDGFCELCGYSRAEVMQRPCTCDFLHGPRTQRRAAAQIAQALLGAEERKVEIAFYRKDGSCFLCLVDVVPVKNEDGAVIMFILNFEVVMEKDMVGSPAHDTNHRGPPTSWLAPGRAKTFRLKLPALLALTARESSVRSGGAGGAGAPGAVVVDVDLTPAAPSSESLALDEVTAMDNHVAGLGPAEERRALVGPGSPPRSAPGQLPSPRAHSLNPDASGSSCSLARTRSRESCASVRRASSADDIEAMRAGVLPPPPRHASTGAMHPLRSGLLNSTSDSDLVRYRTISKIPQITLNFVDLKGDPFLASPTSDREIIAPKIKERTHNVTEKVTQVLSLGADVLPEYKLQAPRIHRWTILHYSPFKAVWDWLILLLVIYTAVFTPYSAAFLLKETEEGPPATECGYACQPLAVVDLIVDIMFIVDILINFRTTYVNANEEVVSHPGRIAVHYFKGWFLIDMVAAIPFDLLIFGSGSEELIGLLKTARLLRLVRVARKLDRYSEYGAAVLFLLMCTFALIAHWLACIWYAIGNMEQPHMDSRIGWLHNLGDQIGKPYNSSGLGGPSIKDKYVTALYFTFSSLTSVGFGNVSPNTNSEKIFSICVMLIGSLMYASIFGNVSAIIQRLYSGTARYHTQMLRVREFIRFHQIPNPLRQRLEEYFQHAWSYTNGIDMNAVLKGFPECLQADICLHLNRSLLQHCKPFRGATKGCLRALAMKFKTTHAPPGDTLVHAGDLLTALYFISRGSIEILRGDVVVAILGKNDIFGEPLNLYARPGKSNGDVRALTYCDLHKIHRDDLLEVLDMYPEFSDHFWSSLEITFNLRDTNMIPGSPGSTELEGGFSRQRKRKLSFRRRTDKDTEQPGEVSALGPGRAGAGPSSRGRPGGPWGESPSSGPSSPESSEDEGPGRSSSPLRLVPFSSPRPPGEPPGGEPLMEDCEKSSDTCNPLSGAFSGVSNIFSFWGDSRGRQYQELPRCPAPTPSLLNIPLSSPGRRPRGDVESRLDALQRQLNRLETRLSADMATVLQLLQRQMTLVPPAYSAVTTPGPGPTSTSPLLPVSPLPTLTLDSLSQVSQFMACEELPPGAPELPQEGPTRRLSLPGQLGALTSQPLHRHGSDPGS

Structure (SMILES)	hERG current change (%, negative = inhibition) at 10uM [%]
O=C(C1CCCCC1)N1CCN(C(=O)C2CCCCC2)CC1	-10.4
CC(=O)n1cc(N(C(=O)CCl)c2ccc(Cl)cc2)c2ccccc21	-2.4
CCc1ccc(N2CC(C(=O)N3CCCCCC3)CC2=O)cc1 (centres unmarked)	-10.7
O=C1CCCc2c1cc(C(=O)Nc1ccc(Cl)cn1)c(=O)n2-c1ccccc1	-60.1
COc1ccc(OC)c(C2=NOC(C(=O)Nc3cc(C)nn3-c3ccccc3)C2)c1 (centres unmarked)	-21.5
CCOC(=O)CCCNC(=O)COC(=O)[C@@H]1CCCN1S(=O)(=O)c1ccc(Cl)cc1	-20.9
CC(=O)N1CCN(c2ccccc2NC(=S)NC(=O)c2cc3ccccc3o2)CC1	19.3
CC(C)c1ccc(NS(=O)(=O)c2ccc(-n3cccn3)cc2)cc1	12.4
COc1ccc(Cc2c(O)nc(SCC(C)C)[nH]c2=O)cc1	5.08
CCS(=O)(=O)N1Cc2ccccc2CC1C(=O)NCCc1c[nH]c2ccccc12 (centres unmarked)	-0.595
CCc1cc(=O)oc2c3c(cc(OCC(=O)NCCCCCC(=O)O)c12)OC(C)(C)CC3	15.6
Cc1cccc(NC(=O)c2cc(NC(=O)c3ccco3)ccc2Cl)n1	-29.1
CCc1ccccc1-n1c(SCC(=O)NC)nnc1-c1ccco1	-0.236
Fc1ccc(NC(=S)NCCc2ccccc2)c(F)c1F	-1.12
CCn1c(C)nc2cc(S(=O)(=O)C(F)(F)F)ccc21	-4.49
O=C(NC1CCCCC1)C(c1ccc(F)cc1)N(C(=O)Cc1ccsc1)c1ccc(F)cc1 (centres unmarked)	-5.35
Cc1cc(C(F)F)n2ncc(C(=O)NCc3ccc(F)cc3)c2n1	-17.7
COc1cccc(C2=NNC(=NCc3ccccc3)SC2)c1	-42.6
CCC(=O)NCCCCNC(=O)CC	21.4
CN(CCC#N)C(=O)COC(=O)c1nn(-c2ccccc2)c(=O)c2ccccc12	3.1
c1coc(CSSCc2ccco2)c1	15.8
Fc1ccc(COc2ccccc2C(=S)N2CCCC2)cc1	3.38

Structure (SMILES)	hERG current change (%, negative = inhibition) at 10uM [%]
COc1cc2ccccc2cc1C(=O)N1CCN(C(C)=O)CC1	16.8
CCC(=O)N(Cc1ccco1)Cc1cc2cccc(C)c2n2nnnc12	23
COc1ccccc1Cn1c(=S)[nH]c2cc(C(=O)N3CCN(C)CC3)ccc2c1=O	-14.4
COc1ccccc1C(=O)NC(CCSC)C(=O)OC(C)C(=O)NC1CC1 (centres unmarked)	14.6
COc1ccccc1-n1cc2ccc([N+](=O)[O-])cc2n1	8.8
CCSc1ccc(C(=O)Nc2ccc(Br)cn2)cc1[N+](=O)[O-]	-1.01
Cc1ccc(OCC(=O)N/N=C\c2ccc(C)o2)c(C)c1	15.5
COc1ccc(N2C(=O)CC(Sc3n[nH]c(-c4cccc(C)c4)n3)C2=O)cc1 (centres unmarked)	-6.65
COc1ccc(CNc2ccc3c(c2)nc(C)n3C)cc1OC	-17.1
CN(CC(=O)Nc1ccc(F)c(F)c1F)C(=O)C1CSC2(C)CCC(=O)N12 (centres unmarked)	-5.92
CC(=O)Oc1cccc(C(=O)Nc2ccccc2C(=O)N2CCCC2)c1	28.4
CCS(=O)(=O)N1CCN(c2c(Cl)cccc2[N+](=O)[O-])CC1	-15.3
COc1ccc(NC(=O)COc2ccccc2C)cc1S(=O)(=O)N1CCCCC1	-0.099
Cc1nc2cc(C(=O)N3CCC4(CC3)OCCO4)ccc2n1-c1cccc(F)c1	-7.21
CCCC(=O)Nc1cc(C)c(NC(=O)c2ccncc2)cn1	-16.5
CN(C)c1ccc(C(CNC(=O)COc2ccc(Cl)cc2)N2CCCC2)cc1 (centres unmarked)	-46.4
CCOC(=O)C(=O)Nc1cc([N+](=O)[O-])ccc1C	3.65
Cc1ccc(NC(=O)N2CCCCCC2)c(C)c1	9.88
CN(C)S(=O)(=O)c1ccc(C(=O)NNc2nc(-c3ccccc3)c3cc(Br)ccc3n2)cc1	9.74
CCOc1ccc(CNC(=O)c2ccccc2NC(=O)C2=CSCCO2)cc1	-21.5
Cc1ccc(OCCOC(=O)c2nc3nccc(C)n3n2)cc1	-18.4
C/C(=N\NC(=O)c1cc(C)nc2ccccc12)c1ccncc1	9.57
